Measurements published in the supplement of paper PMC12217912.
This is one part of the list. Sequences were assembled here from the parent chain. Values near 0.05 are background.

B1: TEV protease; numbered along this chain (parent)
chain: MGESLFKGPRDYNPISSSICHLTNESDGHTTSLYGIGFGPFIITNKHLFRRNNGTLVVQSLHGVFKVKDTTTLQQHLVDGRDMIIIRMPKDFPPFPQKLKFREPQREERICLVTTNFQTKSMSSMVSDTSCTFPSGDGIFWKHWIQTKDGQCGSPLVSTRDGFIVGIHSASNFTNTNNYFTSVPKNFMELLTNQEAQQWVSGWRLNADSVLWGGHKVFMVKPEEPFQPVKEATQL

Variants of: B1
Test: raw area under fraction-flipped curve 0-4 h after induction (AUC4h, not background-subtracted), DNA-recorder readout of cleavage of the substrate (dimensionless); higher = more cleavage of the substrate by the protease variant
Conditions: temperature: 34 °C; time window: 0-4 h after rhamnose induction
Description: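 In vivo DNA recorder in E. coli TOP10(DE3) ΔrhaA at 34 °C. Each TEVp single-site mutant (parent TEVp 0) is paired with a single-site variant of the 7-mer TEVs (canonical ENLYFQ|S). The substrate sits between flexible linkers in a Bxb1-sfGFP-TEVs-SsrA fusion, so cleavage stabilises Bxb1 and speeds flipping of a recombination array, read by NGS. The value is the raw area under the fraction-flipped curve over 0-4 h after rhamnose induction (AUC4h), with ≥20 reads per time point. It is not background-subtracted; inactive controls average about 0.047.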
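Also: Bxb1 expression induced with 0.2% (w/v) L-rhamnose at OD600 near 0.5, cultures sampled hourly, flipped fraction per protease–substrate barcode pair counted by paired-end Illumina sequencing.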

| Variant | area with substrate ENLYFAS | area with substrate ENLYFCS | area with substrate ENLYFES | area with substrate ENLYFFS | area with substrate ENLYFGS | area with substrate ENLYFIS | area with substrate ENLYFKS | area with substrate ENLYFMS | area with substrate ENLYFNS | area with substrate ENLYFPS | area with substrate ENLYFRS | area with substrate ENLYFTS | area with substrate ENLYFVS | area with substrate ENLYFWS | area with substrate ENLYFYS | area with substrate ENLYFHS | area with substrate ENLYFDS | area with substrate ENLYFLS | area with substrate ENLYFSS |
| --- | --- | --- | --- | --- | --- | --- | --- | --- | --- | --- | --- | --- | --- | --- | --- | --- | --- | --- | --- |
| S158K | 0.0612 | 0.0437 | 0.0545 | 0.0453 | 0.0545 | 0.0612 | 0.0426 | 0.0593 | 0.0573 | 0.0296 | 0.0286 | 0.0419 | 0.0296 | 0.0712 | 0.0453 |  |  |  |  |
| G162Q | 0.0599 | 0.0546 | 0.07 |  | 0.0755 | 0.0531 |  |  | 0.0599 | 0.0656 | 0.0525 | 0.0579 | 0.0382 | 0.058 |  | 0.0457 |  |  |  |
| D161L | 0.0557 | 0.0585 | 0.0584 | 0.0496 |  | 0.0502 | 0.0599 | 0.0556 | 0.0582 | 0.059 | 0.0473 |  | 0.0511 | 0.0277 | 0.0443 |  |  |  |  |
| S169L | 0.0641 | 0.0583 | 0.0618 | 0.0599 | 0.053 | 0.0507 | 0.0563 | 0.0566 |  |  | 0.057 |  | 0.0571 |  |  |  |  |  |  |
| M83H | 0.0496 |  | 0.0565 | 0.0655 | 0.0449 | 0.0527 |  | 0.0569 |  | 0.0378 | 0.0454 |  |  | 0.0393 |  | 0.0512 | 0.0603 | 0.0513 | 0.0522 |
| K90D | 0.0687 |  |  | 0.0829 |  | 0.0544 |  |  |  | 0.0671 |  |  |  |  |  | 0.06 | 0.0639 |  |  |
| N53P | 0.0372 |  |  |  |  | 0.0449 |  | 0.0636 | 0.0582 | 0.0641 | 0.06 | 0.0511 |  |  | 0.0482 |  |  |  | 0.0484 |
| T70C | 0.0694 |  | 0.056 | 0.0662 | 0.0674 | 0.071 | 0.0575 | 0.0564 | 0.0576 | 0.0533 | 0.0607 | 0.0525 |  | 0.0634 | 0.0612 |  |  |  | 0.0612 |
| R204Y | 0.0563 | 0.0646 | 0.0673 | 0.0613 | 0.0521 | 0.0531 | 0.0466 | 0.04 | 0.069 | 0.0641 |  | 0.0614 |  |  | 0.0619 |  | 0.0604 | 0.0476 | 0.0601 |
| I167M | 0.0731 | 0.063 |  | 0.0449 |  | 0.046 | 0.0573 | 0.0527 | 0.0574 |  |  | 0.0572 | 0.0531 |  |  | 0.0612 | 0.0586 |  |  |
| T233A | 0.0236 |  |  | 0.0436 |  | 0.0512 | 0.0413 | 0.0759 | 0.0403 |  |  |  |  |  |  |  |  | 0.0392 | 0.0643 |
| P134F | 0.0352 | 0.0402 | 0.0504 | 0.0708 |  | 0.0539 | 0.081 | 0.0529 | 0.0629 |  |  |  |  | 0.0692 |  | 0.0597 |  |  |  |
| V157T | 0.0644 |  |  |  |  | 0.045 |  | 0.0554 | 0.0607 |  | 0.0668 |  |  |  |  |  |  | 0.0623 |  |
| T71S | 0.0478 | 0.0461 | 0.0511 |  |  | 0.0621 | 0.0507 | 0.0615 | 0.0434 | 0.0515 |  | 0.057 |  |  | 0.0653 |  |  | 0.0579 |  |
| V217M | 0.0583 | 0.0565 | 0.0692 | 0.0795 | 0.0538 | 0.0595 | 0.0704 | 0.0538 |  | 0.0571 | 0.064 | 0.0476 |  | 0.0559 |  |  |  |  | 0.0623 |
| L156A | 0.0312 | 0.0503 |  | 0.0565 | 0.0642 | 0.0553 | 0.0703 | 0.0672 | 0.0507 | 0.0632 | 0.0623 | 0.0815 | 0.0541 |  | 0.0519 |  | 0.0278 | 0.0874 | 0.0826 |
| H143E | 0.0568 | 0.0578 | 0.0532 | 0.0634 | 0.0491 | 0.0447 | 0.0762 | 0.0636 | 0.056 | 0.0525 |  | 0.0573 | 0.0626 | 0.0323 | 0.0482 | 0.0443 | 0.0628 |  | 0.0581 |
| S135E | 0.0855 |  |  |  | 0.0416 |  | 0.0725 | 0.0495 |  |  | 0.0623 |  | 0.0455 | 0.0535 |  | 0.0551 |  |  |  |
| S135M | 0.0515 |  | 0.0557 | 0.0538 |  | 0.0577 | 0.073 | 0.0592 | 0.0617 | 0.0605 | 0.0447 | 0.0651 |  | 0.0635 | 0.042 | 0.0656 | 0.0599 | 0.0603 | 0.0884 |
| I86M | 0.0489 | 0.0703 | 0.0676 | 0.0622 |  | 0.0477 | 0.11 | 0.0542 |  |  | 0.0572 |  |  |  | 0.0446 |  | 0.0388 | 0.0389 |  |
| R102L | 0.0507 | 0.0526 | 0.0389 |  | 0.0577 | 0.0466 |  | 0.0642 | 0.0449 | 0.0483 | 0.0526 | 0.0474 | 0.0555 | 0.0472 | 0.0429 |  | 0.0503 | 0.0683 | 0.0544 |
| V210W | 0.0618 |  |  | 0.07 |  | 0.0611 | 0.0557 |  | 0.0382 | 0.0536 | 0.0604 |  | 0.0642 |  |  |  |  | 0.0816 |  |
| R102V | 0.0575 | 0.0405 | 0.063 |  | 0.0525 | 0.047 |  | 0.0445 |  | 0.0521 | 0.0602 | 0.026 | 0.0458 |  | 0.0763 | 0.0311 | 0.0398 | 0.0443 | 0.0286 |
| D82S | 0.0613 |  |  | 0.0597 | 0.0571 | 0.0541 |  | 0.0556 |  |  | 0.0507 |  |  | 0.053 |  |  |  |  |  |
| M83N | 0.0591 |  | 0.0589 | 0.0541 | 0.0542 | 0.0547 |  | 0.0452 | 0.0384 | 0.058 | 0.0479 | 0.0406 |  | 0.0429 | 0.0413 |  |  | 0.0522 | 0.0709 |
| T30M | 0.0498 |  | 0.0639 | 0.063 |  | 0.0613 | 0.0615 | 0.0462 | 0.0514 |  |  |  | 0.0653 |  |  | 0.0598 |  |  | 0.0583 |
| S209M | 0.0755 |  | 0.0624 | 0.0697 | 0.0627 |  | 0.0293 | 0.0922 | 0.0428 |  | 0.0567 | 0.0636 | 0.0498 | 0.0599 | 0.0615 |  |  |  |  |
| Q197H | 0.0565 | 0.0553 | 0.0753 |  | 0.0648 | 0.0494 | 0.0581 | 0.0521 | 0.0616 | 0.0622 | 0.0678 |  | 0.0479 | 0.0744 |  | 0.068 |  |  |  |
| W212H | 0.0349 |  |  |  | 0.0557 | 0.0553 |  | 0.0668 | 0.0454 | 0.0612 | 0.0515 |  | 0.0589 | 0.0624 | 0.0349 |  |  | 0.0467 | 0.0677 |
